# Data published in a collection of fitness landscapes (doi:10.1126/science.1257360).
# The other results are listed elsewhere or left out.
# B1: PhoQ; a variant is named by its letters at X, in order, P23837 (parent)
# chain: MKKLLRLFFPLSLRVRFLLATAAVVLVLSLAYGMVALIGYSVSFDKTTFRLLRGESNLFYTLAKWENNKLHVELPENIDKQSPTMTLIYDENGQLLWAQRDVPWLMKMIQPDWLKSNGFHEIEADVNDTSLLLSGDHSIQQQLQEVREDDDDAEMTHSVAVNVYPATSRMPKLTIVVVDTIPVELKSSYMVWSWFIYVLSANLLLVIPLLWVAAWWSLRPIEALAKEVRELEEHNRELLNPATTRELTSLVRNLNRLLKSERERYDKYRTTLTDLTHSLKTPLXXLQXXLRSLRSEKMSVSDAEPVMLEQISRISQQIGYYLHRASMRGGTLLSRELHPVAPLLDNLTSALNKVYQRKGVNISLDISPEISFVGEQNDFVEVMGNVLDNACKYCLEFVEISARQTDEHLYIVVEDDGPGIPLSKREVIFDRGQRVDTLRPGQGVGLAVAREITEQYEGKIVAGESMLGGARMEVIFGRQHSAPKDE
# Variants of: B1
# Assay: enrichment ratio after two sorts for PhoP signalling (ratio (wild type AVST 3.29)); higher = more functional
# Conditions: with PhoP (E. coli)
row,Variant,enrichment ratio
1,TCSH,10.9
2,IRAW,≤ 0.25
3,ESHP,≤ 0.25
4,PHQH,≤ 0.25
5,RIYN,≤ 0.25
6,FPHE,≤ 0.25
7,LCDM,≤ 0.25
8,QMHG,13
9,ELRR,≤ 0.25
10,NHFN,≤ 0.25
11,AKQQ,≤ 0.25
12,YHHS,≤ 0.25
13,FVYE,≤ 0.25
14,VPFE,≤ 0.25
15,NQPI,≤ 0.25
16,DWNV,≤ 0.25
17,NGVD,≤ 0.25
18,YKWS,≤ 0.25
19,PCAS,≤ 0.25
20,IDNF,≤ 0.25
21,DCRQ,≤ 0.25
22,AHYV,≤ 0.25
23,PQSK,≤ 0.25
24,INPL,≤ 0.25

row,Variant,enrichment ratio
1,HISQ,≤ 0.25
2,WVPI,≤ 0.25
3,WMFC,≤ 0.25
4,WDNS,≤ 0.25
5,DAYY,≤ 0.25
6,LEYD,≤ 0.25
7,LVIY,≤ 0.25
8,KEWA,≤ 0.25
9,HTSG,≤ 0.25
10,GRPQ,≤ 0.25
11,RCAK,≤ 0.25
12,KEYQ,≤ 0.25
13,NNCK,≤ 0.25
14,KNLL,≤ 0.25
15,VSTK,≤ 0.25
16,YGYE,≤ 0.25
17,FFLR,≤ 0.25
18,VMYA,≤ 0.25
19,DHFW,≤ 0.25
20,YEYQ,≤ 0.25
21,TRCY,9.24
22,DPMQ,≤ 0.25
23,SFCL,1.69
24,PKAR,≤ 0.25

row,Variant,enrichment ratio
1,LHNT,≤ 0.25
2,LNAH,≤ 0.25
3,RGRR,0.579
4,AQKL,≤ 0.25
5,SNFA,≤ 0.25
6,LYQA,≤ 0.25
7,ADSG,1.26
8,RCRL,≤ 0.25
9,VGYC,≤ 0.25
10,REYM,≤ 0.25
11,QPDN,≤ 0.25
12,QMKR,≤ 0.25
13,KYCE,≤ 0.25
14,KYQG,≤ 0.25
15,VFGW,≤ 0.25
16,PGFW,0.388
17,SSEK,≤ 0.25
18,SDKM,≤ 0.25
19,IQFL,≤ 0.25
20,KAFL,≤ 0.25
21,ASDQ,≤ 0.25
22,VHEY,≤ 0.25
23,AVVN,6.06
24,PYQP,≤ 0.25

row,Variant,enrichment ratio
1,MSMN,≤ 0.25
2,TDIS,1.04
3,KFVG,≤ 0.25
4,AVSW,5.53
5,LKMC,≤ 0.25
6,FQVN,≤ 0.25
7,DPVK,≤ 0.25
8,FMWL,≤ 0.25
9,EEAC,≤ 0.25
10,RPNN,≤ 0.25
11,YVFA,≤ 0.25
12,SSNL,3.91
13,KKRW,≤ 0.25
14,NMMN,≤ 0.25
15,GRMF,≤ 0.25
16,EKWN,≤ 0.25
17,NWAS,≤ 0.25
18,EKMF,≤ 0.25
19,YNDA,≤ 0.25
20,RTFK,≤ 0.25
21,DDCC,≤ 0.25
22,VIGK,≤ 0.25
23,NARW,≤ 0.25
24,FFDI,≤ 0.25

row,Variant,enrichment ratio
1,DARL,≤ 0.25
2,ILWS,≤ 0.25
3,WPRS,≤ 0.25
4,IIKN,≤ 0.25
5,HHSE,≤ 0.25
6,QVSP,≤ 0.25
7,HSIK,≤ 0.25
8,MPYC,≤ 0.25
9,DICA,≤ 0.25
10,IGKP,≤ 0.25
11,WTVF,≤ 0.25
12,WSFM,≤ 0.25
13,SAVE,≤ 0.25
14,MMWF,≤ 0.25
15,NIHQ,≤ 0.25
16,INGQ,≤ 0.25
17,RVQP,≤ 0.25
18,TDYK,≤ 0.25
19,IRIM,≤ 0.25
20,TSDA,≤ 0.25
21,EHRW,≤ 0.25
22,DTYQ,≤ 0.25
23,FEEW,≤ 0.25
24,EDTL,≤ 0.25

row,Variant,enrichment ratio
1,LLKW,≤ 0.25
2,SACK,0.562
3,KCAW,≤ 0.25
4,TRSR,≤ 0.25
5,RVHW,≤ 0.25
6,WKSQ,≤ 0.25
7,DAPG,≤ 0.25
8,CTFF,≤ 0.25
9,RAMY,≤ 0.25
10,IQLE,≤ 0.25
11,AVAH,13.4
12,FCPS,≤ 0.25
13,WVKQ,1.79
14,SLKD,≤ 0.25
15,PLKP,≤ 0.25
16,QFDT,≤ 0.25
17,WQSH,≤ 0.25
18,QNFP,≤ 0.25
19,HQWG,≤ 0.25
20,DWQG,≤ 0.25
21,GMDW,≤ 0.25
22,ACPD,≤ 0.25
23,QDKQ,≤ 0.25
24,NCPK,≤ 0.25

row,Variant,enrichment ratio
1,YQQP,≤ 0.25
2,RPHG,≤ 0.25
3,TTPM,≤ 0.25
4,MYPI,≤ 0.25
5,NEMM,≤ 0.25
6,DPLV,≤ 0.25
7,FWVG,≤ 0.25
8,FGYL,≤ 0.25
9,NYCP,≤ 0.25
10,TIDS,≤ 0.25
11,ALHP,≤ 0.25
12,YHND,≤ 0.25
13,YYEK,≤ 0.25
14,PGSG,≤ 0.25
15,TLAL,8.99
16,FTLA,4.58
17,GKHP,≤ 0.25
18,AIIH,2.68
19,MSLV,14.7
20,VALM,16.8
21,HRCD,≤ 0.25
22,PIWK,≤ 0.25
23,NHIY,≤ 0.25
24,WHTG,≤ 0.25

row,Variant,enrichment ratio
1,YAID,≤ 0.25
2,YIPG,≤ 0.25
3,HRRS,≤ 0.25
4,YWGY,≤ 0.25
5,SQTE,26.5
6,TSQS,6.53
7,GRVN,≤ 0.25
8,PIFD,≤ 0.25
9,PVCK,≤ 0.25
10,IEEG,≤ 0.25
11,LSHK,≤ 0.25
12,MLCQ,≤ 0.25
13,DDNI,≤ 0.25
14,DPHS,≤ 0.25
15,ADDD,≤ 0.25
16,IDHE,≤ 0.25
17,LKYI,≤ 0.25
18,APTC,≤ 0.25
19,KMVN,≤ 0.25
20,PYLD,≤ 0.25
21,GPRE,≤ 0.25
22,RLRM,≤ 0.25
23,SDKK,≤ 0.25
24,CYLI,≤ 0.25

row,Variant,enrichment ratio
1,FNMC,0.593
2,HYPQ,≤ 0.25
3,VWIP,≤ 0.25
4,YTCR,≤ 0.25
5,DRQA,≤ 0.25
6,TCKI,≤ 0.25
7,PTYG,≤ 0.25
8,WKEK,≤ 0.25
9,KRWV,≤ 0.25
10,PHYS,≤ 0.25
11,SAKM,≤ 0.25
12,YNKW,≤ 0.25
13,AVIW,≤ 0.25
14,VFNN,≤ 0.25
15,PKWV,≤ 0.25
16,TLAC,9.06
17,PIRH,≤ 0.25
18,NYSG,≤ 0.25
19,EEIG,≤ 0.25
20,YPKF,≤ 0.25
21,PLFY,≤ 0.25
22,SKVY,4.33
23,SGSK,≤ 0.25
24,LDWN,≤ 0.25

row,Variant,enrichment ratio
1,LKWV,≤ 0.25
2,YEAS,≤ 0.25
3,DFKK,≤ 0.25
4,THCD,≤ 0.25
5,FHHN,≤ 0.25
6,ELLI,≤ 0.25
7,RAYQ,≤ 0.25
8,TPWA,≤ 0.25
9,RIFY,≤ 0.25
10,NSHM,≤ 0.25
11,QRMC,≤ 0.25
12,KGHA,≤ 0.25
13,RMEG,≤ 0.25
14,VCFS,≤ 0.25
15,KALN,≤ 0.25
16,GAQP,≤ 0.25
17,WFGQ,≤ 0.25
18,IRMF,≤ 0.25
19,YAFW,≤ 0.25
20,GPLF,≤ 0.25
21,YHDL,≤ 0.25
22,PMCI,≤ 0.25
23,WEYI,≤ 0.25
24,NHTY,≤ 0.25

row,Variant,enrichment ratio
1,TMLF,≤ 0.25
2,DQEF,≤ 0.25
3,FERN,≤ 0.25
4,QTHQ,0.76
5,PQDP,≤ 0.25
6,WSIC,≤ 0.25
7,FPQV,≤ 0.25
8,NTEG,≤ 0.25
9,DFQK,≤ 0.25
10,PNIP,≤ 0.25
11,FCYW,≤ 0.25
12,QQEL,≤ 0.25
13,SCAI,6.24
14,AFKT,≤ 0.25
15,VFYQ,≤ 0.25
16,VIWH,≤ 0.25
17,KEDK,≤ 0.25
18,DHNL,≤ 0.25
19,PKYV,≤ 0.25
20,ICFY,≤ 0.25
21,TEDV,≤ 0.25
22,HDPD,1.1
23,EFEA,≤ 0.25
24,IMWC,≤ 0.25

row,Variant,enrichment ratio
1,TSVE,≤ 0.25
2,VVAY,≤ 0.25
3,QFPQ,≤ 0.25
4,QIYV,0.3
5,NLYI,≤ 0.25
6,EERH,≤ 0.25
7,FHFI,≤ 0.25
8,GWKY,≤ 0.25
9,ACVV,≤ 0.25
10,MRVW,≤ 0.25
11,YGWI,≤ 0.25
12,DHPV,≤ 0.25
13,MMIF,≤ 0.25
14,AWTI,≤ 0.25
15,VHGG,≤ 0.25
16,FNIM,≤ 0.25
17,HQLV,≤ 0.25
18,RWEV,≤ 0.25
19,MPPM,≤ 0.25
20,WPGS,≤ 0.25
21,ALTH,5.32
22,TKAD,≤ 0.25
23,WILN,≤ 0.25
24,TWSF,≤ 0.25

row,Variant,enrichment ratio
1,RMYP,≤ 0.25
2,HNQM,≤ 0.25
3,YYLQ,≤ 0.25
4,FVAV,≤ 0.25
5,HEAN,≤ 0.25
6,KQYI,≤ 0.25
7,DPFP,≤ 0.25
8,SHSK,0.407
9,FRNF,0.32
10,IIFF,≤ 0.25
11,VETE,≤ 0.25
12,PEMW,≤ 0.25
13,VYLW,≤ 0.25
14,SWGV,≤ 0.25
15,FCMY,≤ 0.25
16,YVTY,≤ 0.25
17,PQIC,≤ 0.25
18,DWYN,≤ 0.25
